In paper PMC9911399, “Two distinct binding modes provide the RNA-binding protein RbFox with extraordinary sequence specificity”:
Changes are numbered by the printed parent chain; changes in the protein carry UniProt numbers. This is one part of the list.

B1: GGCUUAC (DNA:RNA)
RNA: GGGAGACCGGAAUUCAGAUUGUCCGGCUUACUUAAAUCCCGUCGUAGCCACCA
DNA 1: CAATCTGAATTCCGGTCTCCC
DNA 2: TGGTGGCTACGACGGGATT
B2: ACCCGUU (DNA:RNA)
RNA: B1 RNA with G25A, G26C, U28C, U29G, A30U, C31U
DNA 1: CAATCTGAATTCCGGTCTCCC
DNA 2: TGGTGGCTACGACGGGATT
B3: GUAAUAC (DNA:RNA)
RNA: B1 RNA with G26U, C27A, U28A
DNA 1: CAATCTGAATTCCGGTCTCCC
DNA 2: TGGTGGCTACGACGGGATT
B4: AGUUCUA (DNA:RNA)
RNA: B1 RNA with G25A, C27U, U29C, A30U, C31A
DNA 1: CAATCTGAATTCCGGTCTCCC
DNA 2: TGGTGGCTACGACGGGATT
B5: CACCAGC (DNA:RNA)
RNA: B1 RNA with G25C, G26A, U28C, U29A, A30G
DNA 1: CAATCTGAATTCCGGTCTCCC
DNA 2: TGGTGGCTACGACGGGATT
B6: AGCGUAU (DNA:RNA)
RNA: B1 RNA with G25A, U28G, C31U
DNA 1: CAATCTGAATTCCGGTCTCCC
DNA 2: TGGTGGCTACGACGGGATT
B7: CUCACUG (DNA:RNA)
RNA: B1 RNA with G25C, G26U, U28A, U29C, A30U, C31G
DNA 1: CAATCTGAATTCCGGTCTCCC
DNA 2: TGGTGGCTACGACGGGATT
B8: ACUCGUG (DNA:RNA)
RNA: GGGAGACCGGAAUUCAGAUUGUCCACUCGUGUUAAAUCCCGUCGUAGCCACCA
DNA 1: CAATCTGAATTCCGGTCTCCC
DNA 2: TGGTGGCTACGACGGGATT
B9: ACACCCG (DNA:RNA)
RNA: B8 RNA with U27A, G29C, U30C
DNA 1: CAATCTGAATTCCGGTCTCCC
DNA 2: TGGTGGCTACGACGGGATT
B10: GUUUCAA (DNA:RNA)
RNA: B1 RNA with G26U, C27U, U29C, C31A
DNA 1: CAATCTGAATTCCGGTCTCCC
DNA 2: TGGTGGCTACGACGGGATT
B11: GAUAGGA (DNA:RNA)
RNA: B8 RNA with A25G, C26A, C28A, U30G, G31A
DNA 1: CAATCTGAATTCCGGTCTCCC
DNA 2: TGGTGGCTACGACGGGATT
B12: GCCGCAU (DNA:RNA)
RNA: B1 RNA with G26C, U28G, U29C, C31U
DNA 1: CAATCTGAATTCCGGTCTCCC
DNA 2: TGGTGGCTACGACGGGATT
B13: AGGAUCG (DNA:RNA)
RNA: B8 RNA with C26G, U27G, C28A, G29U, U30C
DNA 1: CAATCTGAATTCCGGTCTCCC
DNA 2: TGGTGGCTACGACGGGATT
B14: GUUUCCA (DNA:RNA)
RNA: B1 RNA with G26U, C27U, U29C, A30C, C31A
DNA 1: CAATCTGAATTCCGGTCTCCC
DNA 2: TGGTGGCTACGACGGGATT
B15: UUUCCGG (DNA:RNA)
RNA: B8 RNA with A25U, C26U, G29C, U30G
DNA 1: CAATCTGAATTCCGGTCTCCC
DNA 2: TGGTGGCTACGACGGGATT
B16: ACUUACG (DNA:RNA)
RNA: B8 RNA with C28U, G29A, U30C
DNA 1: CAATCTGAATTCCGGTCTCCC
DNA 2: TGGTGGCTACGACGGGATT
B17: UCCCAGU (DNA:RNA)
RNA: B8 RNA with A25U, U27C, G29A, U30G, G31U
DNA 1: CAATCTGAATTCCGGTCTCCC
DNA 2: TGGTGGCTACGACGGGATT
B18: UUCAAGU (DNA:RNA)
RNA: B1 RNA with G25U, G26U, U28A, U29A, A30G, C31U
DNA 1: CAATCTGAATTCCGGTCTCCC
DNA 2: TGGTGGCTACGACGGGATT
B19: CUCCUCC (DNA:RNA)
RNA: B1 RNA with G25C, G26U, U28C, A30C
DNA 1: CAATCTGAATTCCGGTCTCCC
DNA 2: TGGTGGCTACGACGGGATT
B20: UCCUAGC (DNA:RNA)
RNA: B1 RNA with G25U, G26C, U29A, A30G
DNA 1: CAATCTGAATTCCGGTCTCCC
DNA 2: TGGTGGCTACGACGGGATT

Each binder was assayed against T1, RBFOX1 RRM (Homo sapiens, UniProt Q9NWB1 109-208) (assay: EMSA; HiTS-Eq, 1 nM pool, 10 min; buffer printed only for the single-RNA assays: 10 mM Tris pH 7.5, 150 mM NaCl, 3.4 mM EDTA, 0.001% NP-40, 30 C). Conditions: tags: His6 N-terminal (pET28a); label: 5' 32P.
T1 sequence: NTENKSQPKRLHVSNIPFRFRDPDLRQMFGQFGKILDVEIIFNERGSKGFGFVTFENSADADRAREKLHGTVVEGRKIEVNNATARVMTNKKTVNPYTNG
Summary of the method: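 Purified wild-type or mutant RbFox RRM at increasing concentrations was equilibrated with 1 nM of 5′-radiolabelled RNA carrying 7 randomized nucleotides for 10 min in 50 µL. Unbound RNA was separated by 8% native PAGE and sequenced. Relative association constants came from read-count changes of each RNA species compared with the control reaction, normalised to the cognate motif.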
B1 was tested, and the binding signal was 0.0152 KA relative to UGCAUGU.
In the case of B2, the binding signal is reported as 0.00238 KA relative to UGCAUGU.
B3 was tested, and the binding signal was 0.00592 KA relative to UGCAUGU.
With B4 the binding signal was 0.00769 KA relative to UGCAUGU.
B5 was tested, and the binding signal was 0.00308 KA relative to UGCAUGU.
In the case of B6, the binding signal is reported as 0.00639 KA relative to UGCAUGU.
B7 was tested, and the binding signal was 0.00809 KA relative to UGCAUGU.
In the case of B8, the binding signal is reported as 0.00949 KA relative to UGCAUGU.
B9 was tested, and the binding signal was 0.00133 KA relative to UGCAUGU.
With B10 the binding signal was 0.0119 KA relative to UGCAUGU.
B11 was tested, and the binding signal was 0.00363 KA relative to UGCAUGU.
For B12, the binding signal was 0.0199 KA relative to UGCAUGU.
B13 was tested, and the binding signal was 0.0255 KA relative to UGCAUGU.
With B14 the binding signal was 0.0128 KA relative to UGCAUGU.
B15 was tested, and the binding signal was 0.00356 KA relative to UGCAUGU.
B16 was tested, and the binding signal was 0.00679 KA relative to UGCAUGU.
With B17 the binding signal was 0.000725 KA relative to UGCAUGU.
In the case of B18, the binding signal is reported as 0.0099 KA relative to UGCAUGU.
B19 was tested, and the binding signal was 0.00557 KA relative to UGCAUGU.
B20 was tested, and the binding signal was 0.0075 KA relative to UGCAUGU.
